Source: the supplement of paper PMC3334620
The full ranking holds about 33,000 sequences; the median of “E-score (-0.5 to 0.5)” is about -0.035, and the highest 2% start at about 0.35. The list shows a part of the results.

Molecular target: T1, Pdr3 (UniProt P33200)
T1 sequence: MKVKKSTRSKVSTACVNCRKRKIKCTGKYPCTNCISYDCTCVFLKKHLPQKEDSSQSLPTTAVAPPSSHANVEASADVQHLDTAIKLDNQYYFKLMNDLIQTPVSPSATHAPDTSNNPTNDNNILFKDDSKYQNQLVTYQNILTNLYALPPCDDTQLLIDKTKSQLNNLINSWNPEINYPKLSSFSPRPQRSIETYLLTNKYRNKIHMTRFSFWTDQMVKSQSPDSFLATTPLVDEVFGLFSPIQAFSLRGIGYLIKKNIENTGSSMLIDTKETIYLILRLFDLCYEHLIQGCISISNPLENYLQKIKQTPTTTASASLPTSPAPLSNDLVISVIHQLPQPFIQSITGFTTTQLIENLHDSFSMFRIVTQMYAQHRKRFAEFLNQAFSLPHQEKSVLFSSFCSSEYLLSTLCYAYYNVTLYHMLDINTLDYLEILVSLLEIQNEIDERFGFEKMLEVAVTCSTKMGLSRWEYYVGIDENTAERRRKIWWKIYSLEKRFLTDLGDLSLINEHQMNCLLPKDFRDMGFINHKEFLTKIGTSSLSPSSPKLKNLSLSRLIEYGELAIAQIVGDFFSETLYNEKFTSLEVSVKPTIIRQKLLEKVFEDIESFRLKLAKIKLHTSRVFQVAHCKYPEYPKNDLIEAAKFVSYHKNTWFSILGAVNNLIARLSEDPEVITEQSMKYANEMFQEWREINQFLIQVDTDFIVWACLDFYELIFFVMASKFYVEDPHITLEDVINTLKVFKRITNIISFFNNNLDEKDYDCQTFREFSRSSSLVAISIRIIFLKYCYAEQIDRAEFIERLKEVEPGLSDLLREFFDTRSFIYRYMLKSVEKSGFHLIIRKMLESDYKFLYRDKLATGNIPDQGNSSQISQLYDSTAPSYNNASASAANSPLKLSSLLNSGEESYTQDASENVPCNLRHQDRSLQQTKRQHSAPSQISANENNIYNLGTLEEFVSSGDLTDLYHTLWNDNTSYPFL
Assay: PBM E-score (8-mer binding enrichment) (E-score (-0.5 to 0.5)); higher = stronger / more preferred TF binding; most listed sequences are background and not binding sites
Conditions: protein concentration: 200 nM; construct: GST-full length
Procedure: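 Universal 'all 10-mer' protein binding microarrays (Agilent AMADID 015681) probed with GST-tagged S. cerevisiae TFs (full-length or DBD) made by in vitro transcription/translation (PURExpress), about 100-200 nM. Bound TF was detected with fluorescent anti-GST. Each ungapped 8-mer (which stands for itself and its reverse complement) is scored by the PBM enrichment score (E-score), a modified Wilcoxon-Mann-Whitney statistic from -0.5 to +0.5, computed with the Universal PBM Analysis Suite. Scale: above 0.35 generally sequence-specific binding.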

Sequence	PBM E-score
GCCATGAA	-0.0141
CATACGCG	0.152
ATGCGGCC	0.107
GTCAGACA	0.0194
ATACCAAC	0.0867
AATTGCTG	0.172
ACACGGCT	0.168
GATCGTTA	0.0207
CCAGGCGA	-0.138
ATCAGCTG	0.0392
CTTCCGAA	0.385
TCCTAAAA	-0.212
CACCAGAA	-0.258
AGGACACA	0.0706
GATGACGA	-0.0975
CGGCCACC	0.242
TAACCCCA	-0.052
GCATCGAC	0.0146
CCAATGAC	-0.284
GATCGCCA	0.0799
TGTCGGAA	0.383
CATCCATG	-0.064
GACCGGAA	0.401
GGGAAACA	0.161
CCGAACGA	0.238

Sequence	PBM E-score
AGCCCGCG	0.381
AATGTATG	-0.00059
ATTTTTTA	0.107
CCAGCCCA	-0.254
CCTGAGGC	-0.149
CAAACGAC	0.0429
AAAGCGTG	0.00059
AGGGCGAA	0.0169
CTTCGACA	-0.179
AGAACGAT	-0.0763
ACTAGTAG	-0.221
ATGCGCAC	0.081
CACTCTTA	-0.131
GACACCTC	0.0864
GCCCGGGC	0.427
GCGTGTCA	0.0968
ACTCCAGA	-0.136
CTTGAAAC	0.0515
ACCCGTCT	0.105
ACGGAGAG	0.319
TCCTCACA	-0.132
TACTAAAA	-0.0309
GAGAGTGA	-0.0729
AAATGTCA	-0.16
CGGAATAC	0.427

Sequence	PBM E-score
ACACTCTA	-0.0123
ATCGTACA	-0.104
AGGTCTCA	-0.151
CATCCTAG	-0.218
AGGAAGAG	-0.0084
ATTAAGGG	-0.104
GACACCGC	0.135
CCGCAGAC	0.173
CGTTTTTC	-0.00464
ATAAGTAC	-0.0877
ACAGAGGC	-0.188
CCAAGGCG	0.0196
AATTAGGA	-0.00973
AATTTTTA	-0.0903
AACACCCG	0.307
ACACCGCA	0.12
CCCGCAAG	-0.0789
TGAGTGCA	-0.0591
AAGAAGGA	-0.099
GAGTCAAC	-0.184
AAGGATAT	-0.028
GCAATTGA	0.0254
TCATCCAA	-0.0071
AATGAACT	0.177
CTGTTAGC	-0.0553

Sequence	PBM E-score
GCGGGAGA	0.159
CGTGTTTA	0.00463
CGCGGACA	0.361
CGCTTTAC	-0.0323
AACGGGGA	0.164
GCCAAGGA	-0.194
GCCTGCGA	-0.228
CAATCACC	-0.0703
AAGATGAC	-0.202
AGATTGAG	-0.0419
GGAAGTGA	0.217
CGCGCGCC	0.241
CAAAACGC	0.13
ACTAAATC	0.144
CAGTATAG	0.0503
AAAGATGA	-0.16
CACACGGC	0.0275
GGACCTAC	0.0517
CACAGAGG	-0.0837
ACACTTCG	-0.13
CCTGGCCG	0.136
AAATTTCT	-0.0903
CCTATGCA	-0.16
CTCGTGAC	-0.0864
ACGACCAA	-0.178

Sequence	PBM E-score
AATTTAAA	0.0569
GCTTGGAA	-0.0548
AGGTAATG	0.0131
AGAGGCAA	-0.153
GAGCAATC	0.107
GGAGGCCA	0.0283
ACCTTCTA	-0.212
GCCCCATA	-0.0286
ACACGTAC	-0.201
CAACGGTC	0.0475
AGAGGCGA	-0.293
CACCTACC	-0.163
CAGAAAAA	-0.142
AGCGGGGA	0.0517
CGGGTTTA	0.327
ACACCGCT	-0.166
CATTCTAG	-0.32
ATCTCGAG	0.0184
GGGCTAAA	0.0946
GCTAGGAA	-0.0867
CCTACGCG	0.0621
AGTGCTCG	-0.148
CCAACAGA	-0.199
GACCAGTA	0.0204
CCAACTTC	-0.128

Sequence	PBM E-score
ACCCCCAG	-0.227
GTGAATTA	-0.0214
GCTTCCGA	0.405
CTCTGTAA	-0.257
ATATGGTG	0.0907
CGTTGAAC	-0.0169
GGGTGGTA	0.127
AGCGATAA	-0.0442
ACAGGCCT	-0.13
CGTAACAC	-0.0629
CTTAGAGC	-0.129
AGCTTCCA	0.0336
ACAGAGGT	-0.166
CGTGCTAC	-0.0992
ACCTGGTC	0.0867
CAAGTAAA	-0.0515
CGTTGTTC	0.132
CTGGTAGA	-0.0687
CCACACGC	0.0821
GACCACGC	-0.0943
TCTCGCCA	-0.102
ATCTGCCG	0.306
CGGGGTAA	0.267
CCATCCAA	-0.105
CATTCGGA	0.356

Sequence	PBM E-score
ACAATTTC	-0.157
AACTAACA	0.0413
AATATCCG	0.323
GTCAGTAA	-0.145
ACCGGAAG	0.42
AGAGCTAT	-0.194
CCTACTGC	-0.132
CATCCCTA	-0.0904
GTCTACAC	-0.0206
CCCTATCA	-0.143
ACAATTGT	0.0284
ACCTATGA	-0.24
AGTAACCA	-0.0464
AACCACTC	0.0319
CGAGCGAC	-0.113
AAGCATCT	-0.243
AACATCCC	0.292
GGGACGCA	-0.0927
AAGTAGGG	-0.0838
CAACCTAC	-0.0442
AACTTTTC	-0.124
AGGGCCGG	0.212
